According to PubChem BioAssay AID1460 (National Center for Advancing Translational Sciences (NCATS), 2008):
About 5,800 (2.1%) of roughly 270,000 compounds were called active. This list was built around the results that the source calls inconclusive (neither active nor inactive); the mix of calls is not that of the screen. Calls follow the shape of the dose curve; as a rule, active = well fitted inhibition curve with a large enough effect; inconclusive = small, poorly fitted or top-dose-only effect; inactive = flat fitted curve, though single readings scatter. Potencies beside an inconclusive call are fits to weak or partial responses and may not hold up.

Each compound was assayed against Microtubule-associated protein tau (Homo sapiens) (UniProt P10636) (assay: qHTS for Inhibitors of Tau Fibril Formation, Thioflavin T Binding). Conditions: recombinant tau K18 P301L, heparin-induced fibrillization, ThT fluorescence; series mostly up to 57.4 µM.
How it was run: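 Using a mix of unlabeled (15 uM) and Alexa 594-labeled (0.24 uM) tau K18 P301L, heparin-triggered fibrillization over 6 hr at 37 C was scored by ThT fluorescence.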
Also: nearly all actives have a fitted effect of over 55% in size.
Potency is read from the fitted curve at half-maximal effect; tags tell the direction and shape of the fitted curve.

Chain of UniProt P10636 (P10636 whole entry, looked up): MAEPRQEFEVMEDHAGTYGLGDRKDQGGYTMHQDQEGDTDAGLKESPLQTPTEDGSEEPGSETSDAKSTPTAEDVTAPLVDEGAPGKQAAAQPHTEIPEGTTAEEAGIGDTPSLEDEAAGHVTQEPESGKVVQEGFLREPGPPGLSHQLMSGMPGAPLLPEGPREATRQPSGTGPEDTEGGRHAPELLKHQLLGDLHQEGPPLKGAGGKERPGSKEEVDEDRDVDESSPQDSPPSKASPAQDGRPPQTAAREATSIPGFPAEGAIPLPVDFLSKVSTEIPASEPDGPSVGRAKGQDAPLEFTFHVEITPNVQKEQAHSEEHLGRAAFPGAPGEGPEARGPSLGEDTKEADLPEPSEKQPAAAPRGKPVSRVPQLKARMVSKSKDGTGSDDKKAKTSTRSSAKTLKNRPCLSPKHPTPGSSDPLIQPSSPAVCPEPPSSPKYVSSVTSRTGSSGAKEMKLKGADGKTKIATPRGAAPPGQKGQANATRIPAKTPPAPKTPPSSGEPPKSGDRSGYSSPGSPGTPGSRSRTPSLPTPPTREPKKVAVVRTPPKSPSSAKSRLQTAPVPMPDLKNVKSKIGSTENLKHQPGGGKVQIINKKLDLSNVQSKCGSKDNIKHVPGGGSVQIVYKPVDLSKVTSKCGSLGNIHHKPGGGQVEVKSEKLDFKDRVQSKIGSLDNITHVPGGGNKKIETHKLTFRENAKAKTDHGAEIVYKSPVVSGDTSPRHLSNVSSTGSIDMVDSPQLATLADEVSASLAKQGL

SMILES | Potency
NC(=O)c1ccccc1OCC(=O)c1ccc(Cl)cc1 | inconclusive: 8.91 µM [inhibitor, partial curve]
[O-][N+]1=c2ccc(Nc3ccccc3)cc2=NC12CCCCC2 | active: 7.08 µM
COc1cc(NC(=O)C2=C(N3CCOCC3)/C(=C/c3ccc(Cl)cc3)CC2)cc(OC)c1OC | inconclusive: 7.94 µM [inhibitor, partial curve]
O=C(NCc1ccccc1Cl)C1CCN(C(=O)N2CCOc3ccccc32)CC1 | inactive
N#C/C(C(=O)NCCc1ccccc1)=C1/N=C(NC(=O)c2cccs2)c2ccccc21 | inactive
CCC(CC)C(=O)Nc1nnc(S(=O)(=O)N2CCc3ccccc32)s1 | inconclusive: 6.31 µM [inhibitor, partial curve]
Cc1cc(C)cc(OCC(=O)Nc2ccc(N3CCN(C(=O)c4ccco4)CC3)cc2)c1 | inconclusive: 2 µM [inhibitor, full curve]
CC1(C)CC(=O)c2cc(C(=O)NC3CCSC3=O)c(=O)n(-c3ccccc3)c2C1 (stereo not drawn) | inconclusive: 3.55 µM [inhibitor, full curve]
CN1/C(=C\C=C2\N=C(c3ccc(F)cc3)OC2=O)C(C)(C)c2ccccc21 | active: 28.2 µM
C/C(=N/NC(=O)CNc1ccc(C)cc1)c1ccc(Br)s1 | inconclusive: 14.1 µM [inhibitor, single point]
Fc1ccc(Nc2nc(SCc3cccc(Cl)c3)nc3ccccc23)cc1 | inactive
COc1ccc(CNC(=O)C(CCSC)NS(=O)(=O)c2ccc3c(c2)oc(=O)n3C)cc1 (stereo not drawn) | inactive
Cc1ccc(C)c(CN2C(=O)c3ccccc3S(=O)(=O)c3ccc(C(=O)Nc4cc(F)ccc4F)cc32)c1 | inactive
CC(C)(C)c1nc(S(=O)(=O)c2ccc(Cl)cc2)c(N2CCOCC2)o1 | inconclusive: 31.6 µM [inhibitor, single point]
COCc1c(C(=O)N2CCN(c3ccc(C(F)(F)F)cn3)CC2)oc2ccccc12 | inconclusive: 22.4 µM [inhibitor, partial curve]
CCOc1ccc(NC(=O)CN2CCN(CC(=O)Nc3ccc(F)cc3)CC2)cc1 | inactive
C#CCOCCOCCOCCNc1nc(N2CCN(C(=O)[C@H](C(C)C)n3cc(CCO)nn3)CC2)nc(N2CCN(C(=O)[C@H](CCCCN)n3cc(CCCC)nn3)CC2)n1 | inactive
O=C1CC(c2ccco2)Cc2nc(N3CCc4ccccc4C3)ncc21 (stereo not drawn) | inconclusive: 15.8 µM [inhibitor, partial curve]
COc1cc(Cl)c(C)cc1NC(=O)CCc1c(C)nc2c3cccnc3nn2c1C | inconclusive: 17.8 µM [inhibitor, partial curve, poor fit]
O=C(Nc1ccc(C(=O)N2CCCCC2)cc1)c1nsc2ccccc12 | inconclusive: 20 µM [inhibitor, single point]
O=S(=O)(c1ccccc1)c1nc(-c2ccccc2)oc1N1CCOCC1 | inactive
CC(C)CC(=O)NC(=S)NNC(=O)c1ccc([N+](=O)[O-])cc1 | inactive
COC(=O)c1cc(-c2ccc(OC)c(OC)c2)n[nH]1 | inconclusive: 31.6 µM [inhibitor, partial curve]
CN(C)c1ccc(/C=[N+](\[O-])C2N(c3ccccc3)C(=S)SC2(C)C)cc1 (stereo not drawn) | inactive
N#CCc1nc2ccc(S(=O)(=O)N3CCOCC3)cc2s1 | inconclusive: 20 µM [inhibitor, partial curve, poor fit]

SMILES | Potency
CCn1c(SCc2ccc(Cl)cc2)nnc1-c1ccccc1 | inactive
C=CCOc1ccccc1CNc1ccc2c(c1)OCCO2 | active: 17.8 µM
N#CC1=C2N=C(N)c3ccccc3N2C2=C(C(=O)CCC2)C1c1ccc(Cl)cc1 (stereo not drawn) | inconclusive: 28.2 µM [inhibitor, partial curve]
CN(C)c1nc(OCCOC(=O)Nc2ccc(Cl)cc2Cl)nc(N(C)C)n1 | inconclusive: 39.8 µM [inhibitor, single point]
Cc1ccccc1CC1(CO)CCCN(C(=O)c2ccc3ncccc3c2)C1 (stereo not drawn) | inactive
CCC(=O)Nc1nnc(C)s1 | inactive
CCNC(=S)N(Cc1cccs1)Cc1cc2cc(OCC)ccc2[nH]c1=O | inactive
CCN(CC)c1cc(C)c2cc(NC(=O)c3cccs3)ccc2n1 | inconclusive: 15.8 µM [inhibitor, partial curve]
Cc1c(-c2ccccc2)[nH]n2c(=O)c3c(nc12)CCCC3 | inconclusive: 25.1 µM [inhibitor, single point]
COc1ccccc1NC(=S)NNC(=O)c1nn(C)cc1Cl | inactive
COC(=O)c1ccccc1NC(=O)COC(=O)/C=C/c1ccco1 | inactive
CCCOc1ccc(N2C(=O)C/C(=C\c3ccccc3)C2=O)cc1 | inconclusive: 39.8 µM [inhibitor, single point]
COc1ccccc1OCC(=O)N(Cc1nc(-c2ccccc2)no1)C1CCCCC1 | inconclusive: 2.82 µM [inhibitor, full curve, poor fit]
Cc1cc(-c2nnc(SCC(=O)Nc3nc(-c4ccc(Cl)cc4)cs3)o2)no1 | inconclusive: 12.6 µM [inhibitor, partial curve]
CCOC(=O)c1c(CC(C)C)csc1/N=C/C1=C(O)CCCC1=O | inconclusive: 20 µM [inhibitor, partial curve]
CC(=O)N1CCC(=NNc2nc3ccccc3s2)CC1 | inconclusive: 10 µM [inhibitor, partial curve]
CCCOc1ccc(CNC(=O)c2oc3ccc4c(c3c2C)C(=O)CC(C)(CC)O4)cc1 (stereo not drawn) | inactive
CCc1cc2c3c(c1)C(C)CC(C)(C)N3C(=O)C2=O (stereo not drawn) | inconclusive: 28.2 µM [inhibitor, single point]
COc1ccccc1C/C(N)=N/OC(=O)c1ccc2c(c1)OCO2 | inactive
CCOc1cc(C#N)c(NC(=O)c2ccc(OC)c(S(=O)(=O)N3CCN(c4ccccc4)CC3)c2)cc1OCC | inactive
COc1ccc(-n2nc3cc(C)c(N)c(Br)c3n2)cc1 | active: 14.1 µM
N#Cc1nc(N)nc(N(c2ccccc2)c2ccccc2)n1 | inconclusive: 39.8 µM [inhibitor, single point]
Cc1ccc(C)n1-c1sc2c(c1C(=O)O)CCCC2 | inconclusive: 28.2 µM [inhibitor, partial curve]
N#CC1=C2SCN(C3CCCCC3)CN2C(=O)CC1c1ccc(Br)cc1 (stereo not drawn) | inconclusive: 35.5 µM [inhibitor, single point]
COc1cnn(-c2ccccc2)c(=O)c1SCc1ccc(Cl)cc1Cl | inactive

SMILES | Potency
CN(C)C(=O)OC1=C(c2ccccc2)Sc2ccccc2-n2cccc21 | inconclusive: 20 µM [inhibitor, single point]
CN(C(=O)CSc1ncnc2sccc12)c1c(N)n(Cc2ccccc2)c(=O)[nH]c1=O | inactive
Cc1ccc2[nH]c3c(N4CCCCCC4)ncnc3c2c1 | inconclusive: 25.1 µM [inhibitor, single point]
O=C(N/N=C\c1ccc(-c2ccccc2[N+](=O)[O-])o1)C1COc2cc3ccccc3cc2O1 (stereo not drawn) | active: 11.2 µM
C/C(=N/NC(=O)c1ccc2c(c1)OCCO2)c1ccc([N+](=O)[O-])cc1 | inconclusive: 0.0562 µM [inhibitor, full curve, poor fit]
COc1ccc2c(Cl)c(-c3nnc(SCC(=O)c4ccccc4)n3C)sc2c1 | inconclusive: 2.24 µM [inhibitor, full curve]
Brc1ccccc1C1CC(c2ccccc2)=Nc2ccccc2N1 (stereo not drawn) | inconclusive: 39.8 µM [inhibitor, single point]
O=C(Nc1c(C(=O)N2CCN(c3ccccc3F)CC2)oc2ccccc12)c1ccco1 | inconclusive: 39.8 µM [inhibitor, single point]
COc1cc(NC(=O)c2cccs2)ccc1NC(=O)c1ccccc1Cl | inconclusive: 25.1 µM [inhibitor, partial curve, poor fit]
O=C(Cn1c(=O)n(Cc2ccco2)c(=O)c2oc3ccccc3c21)Nc1ccc(F)c(Cl)c1 | inconclusive: 20 µM [activator, partial curve, poor fit]
COc1ccc(N(CC(=O)N2CCc3ccccc3C2)S(=O)(=O)c2ccc(C)cc2)cc1Cl | inactive
CCOC(=O)C1=C(C)NC(=S)N(C(C)=O)C1c1ccc(Cl)cc1 (stereo not drawn) | inactive
COc1cc(SC)ccc1C(=O)N1CCN(c2ccccc2)CC1 | inactive
O=C(O)C1CCc2sc3[nH]c(=S)n(-c4ccccc4)c(=O)c3c21 (stereo not drawn) | inconclusive: 20 µM [inhibitor, single point]
Cc1ccc(C2CC(=O)N3CN(c4ccc(Br)cc4)CSC3=C2C#N)o1 (stereo not drawn) | inconclusive: 3.98 µM [inhibitor, partial curve]
CCc1[nH]nc2c1C(c1ccc(Br)s1)C(C#N)=C(N)O2 (stereo not drawn) | inconclusive: 17.8 µM [inhibitor, partial curve]
COc1ccc(CNC(=O)Cn2c(=O)c3cccn3c3ccccc32)cc1 | inconclusive: 0.158 µM [inhibitor, full curve, poor fit]
COc1cccc(/C=N\NC(=O)C2C(=O)NCC2c2ccccc2)c1O (stereo not drawn) | inactive
Cc1c(NC(=O)CCc2ccccc2)cccc1[N+](=O)[O-] | inactive
CN(Cc1ccccc1)C(=O)[C@H]1CCC(=O)N1Cc1ccco1 | inactive
Cc1ccc(C)c(CSc2nc3ccncc3n2CC(=O)Nc2ccc(C)c(C)c2)c1 | inactive
CC(C)(C)C1CCC(=NNc2ccc(S(N)(=O)=O)cc2[N+](=O)[O-])CC1 (stereo not drawn) | active: 12.6 µM
Cc1ccc(C)n1-c1ccc(C(=O)O)cc1 | inconclusive: 31.6 µM [inhibitor, partial curve]
